Results reported in paper PMC4336329 (PLoS ONE, 2015).
Hit rate of the full screen: of about 310,000 compounds, about 14,000 (4.5%) showed an effect of 50% or more. The effect is printed as a negative number. This is one part of the list.

molecular target: human ether-à-go-go-related gene (hERG) potassium channel (human, UniProt Q12809); test: primary screen, population patch clamp on CHO cells stably expressing hERG
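Note: peak tail current of the secondary pulse compared with the same well before compound.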

human ether-à-go-go-related gene (hERG) potassium channel, sequence (Q12809 whole entry, looked up): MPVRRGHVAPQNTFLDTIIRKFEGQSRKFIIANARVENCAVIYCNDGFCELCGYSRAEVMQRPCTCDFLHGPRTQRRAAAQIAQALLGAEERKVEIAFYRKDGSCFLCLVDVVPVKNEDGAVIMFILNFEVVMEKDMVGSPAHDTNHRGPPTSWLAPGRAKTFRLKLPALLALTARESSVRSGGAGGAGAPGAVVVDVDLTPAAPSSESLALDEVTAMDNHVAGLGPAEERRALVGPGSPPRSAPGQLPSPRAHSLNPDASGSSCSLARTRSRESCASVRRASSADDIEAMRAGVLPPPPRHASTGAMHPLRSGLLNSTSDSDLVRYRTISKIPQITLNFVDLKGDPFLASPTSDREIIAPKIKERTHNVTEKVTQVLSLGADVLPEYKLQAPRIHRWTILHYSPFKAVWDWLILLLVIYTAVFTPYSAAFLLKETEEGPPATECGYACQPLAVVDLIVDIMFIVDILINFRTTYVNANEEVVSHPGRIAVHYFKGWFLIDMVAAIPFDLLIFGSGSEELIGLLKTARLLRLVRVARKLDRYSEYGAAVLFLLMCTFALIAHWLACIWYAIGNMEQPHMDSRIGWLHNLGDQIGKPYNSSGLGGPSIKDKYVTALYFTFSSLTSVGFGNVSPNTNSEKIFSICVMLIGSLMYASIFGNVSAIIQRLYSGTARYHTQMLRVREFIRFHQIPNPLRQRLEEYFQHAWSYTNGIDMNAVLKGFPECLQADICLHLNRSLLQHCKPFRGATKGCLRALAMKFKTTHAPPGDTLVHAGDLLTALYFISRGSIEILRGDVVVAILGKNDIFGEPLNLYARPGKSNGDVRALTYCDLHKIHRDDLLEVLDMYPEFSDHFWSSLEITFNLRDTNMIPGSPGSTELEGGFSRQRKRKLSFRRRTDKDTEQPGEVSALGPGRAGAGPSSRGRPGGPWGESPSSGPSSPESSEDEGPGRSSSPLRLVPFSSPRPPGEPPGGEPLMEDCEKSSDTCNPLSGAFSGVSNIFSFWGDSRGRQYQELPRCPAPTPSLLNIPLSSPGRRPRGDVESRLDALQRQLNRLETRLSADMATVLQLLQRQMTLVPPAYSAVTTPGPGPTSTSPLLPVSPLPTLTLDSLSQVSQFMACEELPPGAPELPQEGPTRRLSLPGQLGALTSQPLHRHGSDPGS

| Compound | hERG current change (%, negative = inhibition) at 10uM [%] |
| --- | --- |
| CC(=O)c1sc(Nc2cccc3ccccc23)nc1C.Cl | 5.55 |
| Cc1cccc(OP(=O)(Oc2ccccc2)OC(c2ccccc2)C(F)(F)F)c1 (stereo not drawn) | 8.93 |
| Cc1ccc(C)c(CSC2=NCCN2S(=O)(=O)c2ccccc2)c1 | -6.88 |
| COc1ccc(NC2=NCC(=O)N2c2ccccc2F)c(OC)c1.Cl | 1.89 |
| CCOCCCNC(=O)Cc1cc(=O)[nH]c(=O)[nH]1 | -3.82 |
| COc1cccc(C2NC(=O)c3ccccc3O2)c1OC (stereo not drawn) | 19.6 |
| CC(=O)c1[nH]c(C)c(C(C)=O)c1C | 13.9 |
| Cc1ccc(N2C(=O)NC(=O)/C(=C\C=C\c3ccco3)C2=O)cc1C | -24 |
| C=CCN(C(=O)Cc1cccs1)c1nc(-c2ccc(S(C)(=O)=O)cc2)cs1 | 23.3 |
| CCC(C(=O)Nc1cccc(C(=O)O)c1)c1ccccc1 (stereo not drawn) | 9.69 |
| S=C(Nc1cccc(Cl)c1)N1CCN(Cc2ccccc2)CC1 | -0.507 |
| COc1ccccc1OCCNC(=O)c1ccccc1OCc1c(C)noc1C | 2.7 |
| C=CCc1c(C)nc2c(-c3ccccc3)cnn2c1N1CCOCC1 | 12.3 |
| CC(Oc1ccc(Cl)cc1Cl)C(=O)NCc1ccncc1 (stereo not drawn) | -14.6 |
| CCc1cccc2c(C(=S)N3CCCC3)c[nH]c12 | 8.97 |
| O=c1c2ccccc2nc(/C=C/c2ccc([N+](=O)[O-])cc2)n1CCCO | -57.4 |
| Cc1csc(NC(=O)Cc2c(F)cccc2Cl)n1 | 7.34 |
| Cc1cc2[nH]c(=O)c(=O)[nH]c2cc1S(=O)(=O)N1CCN(c2ccccc2)CC1 | 0.741 |
| Cc1[nH]c2ccccc2c1-c1csc(NC(=O)CN2CCOCC2)n1 | 15.1 |

| Compound | hERG current change (%, negative = inhibition) at 10uM [%] |
| --- | --- |
| C[C@H]1CN=C(Nc2ccccc2)N1CCC1CCCC1 | -10.6 |
| O=C(NNc1cccc(Cl)n1)c1c(Cl)cccc1Cl | 15.5 |
| COC(=O)c1cc2n3ccccc3c(C)c(-c3ccccc3)c-2c1C(=O)OC | -17.7 |
| C=CCc1c(C)nc2cc(-c3ccc(C)cc3)[nH]n2c1=O | -0.286 |
| CCCCn1c(N)c(N(CC)C(=O)c2cccc(C)c2)c(=O)[nH]c1=O | 14.2 |
| O=C(Cn1ncc2c(=O)oc3ccccc3c21)NCc1cccnc1 | -9.2 |
| Cc1ccc(CCNC(=O)c2cc(C)nn2-c2ccccc2)cc1 | -18 |
| CC(=O)c1c(C)[nH]c(C(=O)Nc2ccc(C)c(S(=O)(=O)N(C)C)c2)c1C | -11.7 |
| O=C(CCC1CCCC1)NCCCNC(=O)CCC1CCCC1 | 4.72 |
| CCOc1ccc(CCNC(=O)CCCn2c(=O)c3cccn3c3cccnc32)cc1OCC | -13.3 |
| COc1ccc(/C=N/NC(=O)c2ccccc2OC)cc1COc1ccccc1[N+](=O)[O-] | 8.94 |
| O=C(O)c1cc(O)ccc1NC(=O)C(c1ccccc1)c1ccccc1 | 7.66 |
| Cc1cc(NC(=O)c2n[nH]c(=O)c3ccccc23)ccc1Br | 4.09 |
| COC1C(C)=C(C)C(=O)N1Cc1ccc(F)cc1 (stereo not drawn) | 14.9 |
| Cc1ccc(S(=O)(=O)c2ccc(-n3nc(C)cc3N)cc2)cc1 | -4.01 |
| Cc1ccc(NC(=S)N(CCN(C)C)Cc2cccs2)cc1 | -19.3 |
| COc1ccccc1-n1nc(C(=O)Nc2ccc3c(c2)OCO3)c2ccccc2c1=O | -1.71 |
| O=C(CCNc1n[nH]c(=O)[nH]c1=O)N/N=C/c1ccccc1Br | 14.5 |
| CCC(C)c1ccccc1NC(=O)COC(=O)c1ccc2[nH]c3c(c2c1)CCCC3 (stereo not drawn) | -7.64 |

| Compound | hERG current change (%, negative = inhibition) at 10uM [%] |
| --- | --- |
| Cc1ccc(-n2nnc3c(SCC(=O)NCc4ccco4)ncnc32)cc1 | 8 |
| O=C(Nc1ccc(F)cc1)c1ccc2c(=O)n3c(nc2c1)CCCCC3 | -51.8 |
| Cc1ccc(C(O)c2cccnc2)o1 (stereo not drawn) | 6.69 |
| COc1ccc(C2Nc3ccccc3C(=O)N2c2ccccc2)cc1COc1ccccn1 (stereo not drawn) | 0.397 |
| CC(NC(=O)COC(=O)c1ccc2c(c1)S(=O)(=O)N=C1CCCCCN12)C12CC3CC(CC(C3)C1)C2 (stereo not drawn) | 6.54 |
| COc1ccc(-c2nc3ccc(N4CCN(C)CC4)cc3c(=O)[nH]2)cc1 | 8.45 |
| COc1cccc(NC(=O)CSc2nc3scc(C)c3c(=O)[nH]2)c1 | 10.5 |
| CC1CCCCN1Cc1ccc(N)cc1 (stereo not drawn) | 12.7 |
| Oc1ccccc1Oc1ncc(Br)c(Cl)n1 | 13.6 |
| Cc1ccn2c(=O)nc(SCC(=O)NCc3ccc(F)cc3)nc2c1 | -0.946 |
| CC(=O)N1CCC(C(=O)OCc2ccccc2F)(c2ccccc2)CC1 | 2.43 |
| N#C/C(=C\c1c(N2CCOCC2)nc2ccccn2c1=O)S(=O)(=O)c1ccccc1 | -63.2 |
| CC1CN(Cc2nc3c(c(=O)n(C)c(=O)n3C)n2Cc2cccc(Cl)c2)CC(C)O1 (stereo not drawn) | -14.2 |
| O=C(CC1C(=O)NCCN1C/C=C/c1ccccc1)NCCCC1CCCC1 (stereo not drawn) | -28.1 |
| COc1ccc(O)c(/C=C2/SC(=S)N(Cc3ccccc3)C2=O)c1 | 19.7 |
| O=C(NCC1CCCO1)c1ccc(Br)c(S(=O)(=O)N2CCOCC2)c1 (stereo not drawn) | -16 |
| O=C(CN1CCN(S(=O)(=O)c2ccc(Br)cc2)CC1)N/N=C/c1ccccc1C(=O)O | 14.2 |
| CN(C)c1cc[n+](CC(=O)c2ccc(Br)cc2)cc1.[Cl-] | 5.59 |
| Cc1ccc(C(=O)N/C(=C\c2cn(C)c3ccccc23)C(=O)OCCN(C)C)cc1 | -26.5 |
